Data as given in the supplement of paper PMC3334620.
The full ranking holds about 33,000 sequences; the median of “E-score (-0.5 to 0.5)” is about -0.054, and the highest 2% start at about 0.35. The list shows a part of the results.

The sequences below were run against T1, Stb5 (UniProt P38699) (assay: PBM E-score (8-mer binding enrichment) (E-score (-0.5 to 0.5)); higher = stronger / more preferred TF binding; most listed sequences are background and not binding sites). Conditions: protein concentration: 200 nM; construct: GST-full length.
T1 sequence: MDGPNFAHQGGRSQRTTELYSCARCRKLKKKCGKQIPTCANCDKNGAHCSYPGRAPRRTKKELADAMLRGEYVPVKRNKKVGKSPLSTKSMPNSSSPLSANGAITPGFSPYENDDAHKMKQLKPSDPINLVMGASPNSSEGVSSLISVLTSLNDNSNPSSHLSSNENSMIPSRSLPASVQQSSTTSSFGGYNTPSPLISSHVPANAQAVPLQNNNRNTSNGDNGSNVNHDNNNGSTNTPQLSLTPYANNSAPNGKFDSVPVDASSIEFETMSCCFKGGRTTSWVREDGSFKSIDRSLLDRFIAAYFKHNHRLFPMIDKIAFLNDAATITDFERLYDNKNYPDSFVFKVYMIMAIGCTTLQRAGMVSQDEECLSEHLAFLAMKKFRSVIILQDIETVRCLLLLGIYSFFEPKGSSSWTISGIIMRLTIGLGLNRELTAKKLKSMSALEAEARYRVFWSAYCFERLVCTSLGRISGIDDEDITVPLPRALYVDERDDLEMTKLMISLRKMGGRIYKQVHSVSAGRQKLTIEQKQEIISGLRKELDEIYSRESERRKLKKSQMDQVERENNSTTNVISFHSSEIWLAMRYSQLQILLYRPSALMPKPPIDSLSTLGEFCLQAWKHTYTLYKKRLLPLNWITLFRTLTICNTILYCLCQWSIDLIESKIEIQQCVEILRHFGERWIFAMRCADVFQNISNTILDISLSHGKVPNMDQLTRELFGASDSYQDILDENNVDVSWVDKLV
Method in brief: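 Universal all-10-mer Agilent arrays, double-stranded by primer extension on fresh or once-stripped slides, were probed with about 100-200 nM GST-tagged yeast transcription factors made by PURExpress. Fluorescent anti-GST detected bound protein, and masliner normalised the scans. E-scores from the Universal PBM Analysis Suite were given to each ungapped eight-base word pooled with its reverse complement.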

Row | Sequence | PBM E-score
1 | GCACTCAC | -0.17
2 | GCGAGCGC | 0.0927
3 | GGCTTAAA | 0.249
4 | AATTAAAT | -0.119
5 | CAGCCGAG | -0.132
6 | CCATTTCC | 0.0447
7 | GCGTTTTA | 0.0748
8 | CACGATAC | -0.158
9 | AATAATAA | 0.0109
10 | TCACGCCA | -0.261
11 | GTCCAAGA | -0.0807
12 | AAGTACCA | -0.0936
13 | AGACTCCA | -0.139
14 | TAGTTGAA | 0.0136
15 | TATAGGCA | -0.262
16 | AGTAAGAG | -0.161
17 | TAAACTGA | 0.0428
18 | CACACCGC | 0.394
19 | AACATAGG | -0.044
20 | GCGTCACA | -0.183
21 | ACGTCGGC | 0.27
22 | CCTCCAAA | -0.0727
23 | ACCGCACA | 0.169
24 | AAAGGCTA | -0.2
25 | ACCTATTC | 0.163

Row | Sequence | PBM E-score
26 | AAATCGGA | 0.234
27 | GTCATTGA | -0.109
28 | GATTCTAA | -0.153
29 | AAGTCCGG | 0.43
30 | GCTAAGTA | -0.0566
31 | CCTTTGCA | -0.0749
32 | AGCGGCCT | 0.377
33 | AGCTGACA | -0.0791
34 | CCGTATTC | 0.073
35 | ACGCTCGA | -0.15
36 | GCTGCGCA | 0.0917
37 | AGTTGTAG | -0.228
38 | ACAAGGGA | -0.135
39 | ATGGGCAG | -0.202
40 | CCCGAAGA | 0.152
41 | CCAAACGA | -0.139
42 | TACGGCCA | 0.0496
43 | GCGAGAAC | -0.00097
44 | AGTCGACC | -0.0264
45 | GCATCCGA | 0.185
46 | CGGCTTTA | 0.439
47 | GCCCCGCA | 0.262
48 | ACAGCACA | -0.0678
49 | AACTAACG | 0.113
50 | ACCTGTCT | 0.0382

Row | Sequence | PBM E-score
51 | ACTTAGCT | -0.191
52 | ATCTGTAA | -0.00108
53 | CTGCTTGC | -0.115
54 | CAATTGAG | -0.157
55 | GCCTAGGA | -0.16
56 | ACACCCCG | 0.331
57 | ATCTATCG | 0.0777
58 | ATTTTCTG | -0.13
59 | AAGCCCCA | -0.189
60 | ACGGAGCT | 0.373
61 | AGCAAGTC | -0.181
62 | ATAACTGC | 0.225
63 | CGCCCCTA | 0.117
64 | AACAGTAG | -0.261
65 | CGGACTGA | 0.359
66 | GTAACACA | 0.0304
67 | CGTACTGA | -0.0773
68 | ACGACGTC | -0.137
69 | CAAGAGAA | -0.156
70 | CGATCGGC | 0.304
71 | GGACTAAA | 0.334
72 | AAAGTCGC | 0.0343
73 | AATCAGAG | 0.123
74 | AATTTATG | 0.0298
75 | CACGGCCG | 0.156

Row | Sequence | PBM E-score
76 | GATTTTGA | 0.0895
77 | CATACGCA | -0.124
78 | AGGACGAC | -0.155
79 | GTTGATGA | -0.12
80 | ACTCATGA | -0.0338
81 | ACCTCACC | -0.228
82 | TATATAAA | 0.0592
83 | CATTCTCA | -0.0326
84 | CCAATGGG | -0.173
85 | AGACCTTA | -0.224
86 | TATAATAA | 0.123
87 | TTTCCAAA | 0.146
88 | AGATTACG | -0.0226
89 | CAAGCTAG | -0.261
90 | CGCGACGA | 0.0271
91 | AGGTCGCC | -0.162
92 | AGAGTAGA | -0.181
93 | CAAACACA | -0.126
94 | CACGTTCC | -0.258
95 | ATGAAGCG | -0.158
96 | ACCGGTTC | 0.281
97 | CATCTAGC | -0.12
98 | TGGGTCAA | -0.358
99 | CATCCGCA | 0.197
100 | CGACGACG | 0.1

Row | Sequence | PBM E-score
101 | CTTTATTA | 0.0102
102 | AAACTTAT | -0.0181
103 | AGGCAAGA | -0.0539
104 | ATCTCTTC | -0.207
105 | ACTCGCGC | 0.141
106 | CGAAAATA | 0.0942
107 | GAGAGTTA | -0.281
108 | CCATTACC | 0.152
109 | AGATCAGC | -0.129
110 | TGTGAACA | -0.149
111 | GTCGACAC | -0.0138
112 | CATCGTAC | -0.122
113 | TACGTAAA | -0.301
114 | CACCTTAA | -0.0239
115 | GTGTTGGA | -0.0809
116 | CGGGTCAA | 0.271
117 | TGGTCAAA | -0.217
118 | CCAGCCCC | -0.0874
119 | AATTATGG | -0.044
120 | CAATAGAC | -0.153
121 | GAGAGGGA | -0.339
122 | ATCCCTAC | -0.0562
123 | AGCTAACA | -0.194
124 | AGGCCAAT | -0.244
125 | CCGTTAGG | 0.163

Row | Sequence | PBM E-score
126 | ACATCCCA | -0.258
127 | GACGCCCA | -0.243
128 | AACTAAGG | -0.132
129 | AAGGCGTG | -0.216
130 | GGCTTTGA | 0.0104
131 | CGACCCTC | -0.0291
132 | GAGAAGCA | -0.18
133 | CTAATAAA | -0.0169
134 | AGGCGAAC | -0.0434
135 | ACATGCCC | -0.14
136 | AGGTCTAA | -0.0469
137 | ACAATCGC | 0.0633
138 | ACCACGGT | 0.00322
139 | CCCGTAGA | 0.144
140 | AAATATGT | 0.0169
141 | CAAGTCCG | 0.356
142 | AAAATACT | -0.0258
143 | ATATTCAG | -0.00061
144 | CCCACCAG | -0.207
145 | ATGAGTCA | -0.321
146 | AATCAGGG | -0.278
147 | ACGGGACG | 0.0842
148 | GTCAGCGA | -0.189
149 | GCACCCCA | 0.103
150 | ATGAATTG | -0.00393

Row | Sequence | PBM E-score
151 | AAGTTAGG | -0.0532
152 | ACTCCATC | 0.112
153 | AGTGTCAG | -0.263
154 | CTTAGGGA | -0.201
155 | ACTCGTCA | -0.163
156 | ACTTCCCC | -0.0637
157 | TTCGACAA | -0.274
158 | CTAGCACA | 0.0238
159 | ACGTGCAT | -0.334
160 | CGAGTAAC | 0.0469
161 | CCCCAACG | 0.013
162 | GTGTATCA | -0.0275
163 | GGACCCTA | -0.012
164 | GCTGCGGA | 0.277
165 | CAGCACAC | -0.183
166 | ACAACAAG | -0.226
167 | AAGGGGGG | -0.361
168 | ACTAGGGC | -0.0176
169 | ATCCAAAG | -0.19
170 | CGCCGCCG | 0.369
171 | GTCCTAAC | 0.0214
172 | CACAGCGC | 0.0388
